From patent US12551573B2, “Compositions and methods for the targeting of PCSK9” (Scribe Therapeutics Inc., priority 2022, dated 2026)

Test system: HBEGF locus
Format: cell-based, human
Conditions: high-throughput screen of dXR repression of the HBEGF gene
[1] = abundance of each domain in the library before vs after diphtheria toxin selection, listed domains met p-value <0.01 and log2(fold change) >2
[2] = change in abundance of each domain in the library before and after diphtheria toxin selection

B1: DOMAIN_25106 (protein, listed as Canis lupus)
chain: AQGQVNFEDVAVYFSPEEWGLLDEAQRLLYRDVMLENLALMASLGYESSMSHGFASLELGSKPWGSDWADVTPARTRDTQG
Log2 (fold change) [1]: 2.8622

B2: DOMAIN_893 (protein, listed as Pan paniscus)
chain: MAALFLSAPPQAEVTFEDVAVYLSREEWGRLGPAQRGLYRDVMLETYGNLVSLGVGPAGPKPGVISQLERGDEPWVLDVQG
Log2 (fold change) [2]: 2.7511

B3: DOMAIN_25150 (protein, listed as Muntiacus reevesi)
chain: LSTQLTVEDVDIKFTPEEWECLDPAQRTLYRDVMEETYRNLLSVGIGPRLPDCSSCIHMTKKLQAKENSGKGEILQRVMCG
Log2 (fold change) [1]: 3.147

B4: DOMAIN_812 (protein, listed as Pan paniscus)
chain: AEITLMNQAQDSRSILFQESVTFEDVAVNFTNREWQCLTYAQRHLYKDVMLENYGNMVSLGFPFPKPPLISHLEREVDPCV
Log2 (fold change) [2]: 2.8201

B5: DOMAIN_966 (protein)
chain: MTLLTFRDVAIEFSLEEWKCLDLAQQNLYRDVMLENYRNLFSVGLTVSKPGLITCLEQRKEPWNVKRQEAADGHPGWSAVV
modifications: Pan troglodytes
Log2 (fold change) [2]: 3.3535

B6: DOMAIN_25741 (protein, listed as Sapajus apella)
chain: FQESVAFEDVAVYFTQNQWGSLDPAQRALYSEVMLENYANVASLAFPFPKPALISHLEKGEAPWGPDPWDAEIPSGINQGG
Log2 (fold change) [1]: 3.7244

B7: DOMAIN_25384 (protein, listed as Rhinolophus ferrumequinum)
chain: DHELVTFRDVIINFSQDEWEYLNSAQRDLYWDVMMENYSNLVSLGCFISKPDVISLLEQGKEPWKVVRKERRRYPDLETRH
Log2 (fold change) [1]: 3.5139

B8: DOMAIN_25194 (protein, listed as Macaca nemestrina)
chain: SQEPVTFADVAVVFTPEEWVFLDSTQRSLYRDVMLENYRNLASVADQLCKPNASSYLEQRGEQWTTDRGILADTCAEPQLQ
Log2 (fold change) [1]: 2.4613

B9: DOMAIN_25842 (protein, listed as Rhinolophus ferrumequinum)
chain: MLTFRDVFIEFSQEEWECLDPAQRKLYMDVMLESYRNLVSLGHSISKPDVITLLEQGKDPCMVVREETRRWCTGKNKSGRR
Log2 (fold change) [1]: 3.0942

B10: DOMAIN_25389 (protein, listed as Ursus maritimus)
chain: SQEPVTFEDVAVYFTQNQWASLDPTQRALYREVMLENYANITSLAFPFPKPDLILQLERGEARWGLDPWIAIEGEALGGVH
Log2 (fold change) [1]: 3.0814

B11: DOMAIN_25844 (protein, listed as Ursus maritimus)
chain: MFSDVSVDFSQEEWECLDPGQRDLYRDVMLENYSNLLSMGLYIPKPQVISLLEQGKEPWMVGRELTRGLCSDLESMCETKL
Log2 (fold change) [1]: 2.5635

B12: DOMAIN_25726 (protein)
chain: SQGLVTFEDVAVYFSLEEWQRLDAAQRDLYKEVMQENYGILVSLGYPIPKPDLIFRLEQGEEPWVPDSPSPEEGDIVTGVY
modifications: Pteropus alecto
Log2 (fold change) [1]: 2.8203

B13: DOMAIN_25554 (protein, listed as Panthera pardus)
chain: SSQTLLTFRDVAIEFSQEEWGCLNHSQRELYRDVMLETYGHLLFLGLVSKPDLVIVLEQKKELWGVKRKETVASHPAVSSQ
Log2 (fold change) [1]: 3.0101

B14: DOMAIN_25126 (protein)
chain: HQISVTFDDVALDFTQEEWILLDLSQRNLYRNVMLENYQNLVTVEYQLSKPKLIAWLEQQELRAVEQGILQEWETGLQTKG
modifications: Puma concolor
Log2 (fold change) [1]: 2.1478

B15: DOMAIN_25204 (protein, listed as Panthera pardus)
chain: AHRSLMFSDVSIVFSQEEWEYLDLEQRDLYRDVMLENYSNLVSLGCFISKPDVISLLEQGKEPWKVVRKGRRRYAAPMSIA
Log2 (fold change) [1]: 2.7595

B16: DOMAIN_25869 (protein, listed as Vombatus ursinus)
chain: FQESVTFKDVSVDFTQGEWGQLDPAQKNLYRDVMLENYRTLVSLGLQVFKPEVIYRLERGEAPWILEREISRGPCPDWPET
Log2 (fold change) [1]: 2.3538

B17: DOMAIN_25128 (protein, listed as Sapajus apella)
chain: DSVAFEDVAINFTCEEWALLGPSQKSLYRDVMQETIRNLDCIGMKWQNLDIEEDEYKNPGRNLRCFMVERSCEIKDNSQCG
Log2 (fold change) [1]: 2.588

B18: DOMAIN_25094 (protein, listed as Phascolarctos cinereus)
chain: SQESLTFKDVAVDFTQEEWGKLDSGQRYLYRDVMLENYRNLVSLGHQGSKPYVISQLEQGQEPWIVEREISRGNCKDWGTR
Log2 (fold change) [1]: 3.0413

B19: DOMAIN_25131 (protein, listed as Sapajus apella)
chain: LQEPLEFMDVAIEFSLEEWHCLDTAQRNLYRDVMLENYRNLVFLGIVVSKPDLITWLEQGKKPLTVKRRGMIAAPPGMSSH
Log2 (fold change) [1]: 2.592

B20: DOMAIN_25410 (protein)
chain: SYGSLSFEDVTVGFSQEEWQHLDPAQRTLYRDVMLENYSHLVAVGCCVPKPDVIFRLEQGQQPWLIEEESLDQSCPEVCRV
modifications: Puma concolor
Log2 (fold change) [1]: 2.8699

B21: DOMAIN_25157 (protein, listed as Myotis brandtii)
chain: DKTIIAFGDVAVAFTEREWKLLSPAQRTLYRDVMLETYSHLVSLGIAFSKPKFITQLEQGDEPWREESECLLELCPEPRTE
Log2 (fold change) [1]: 3.0902

B22: DOMAIN_25857 (protein, listed as Balaenoptera acutorostrata)
chain: AHMSLSFRDVAIDLSQEEWECLDPVQRALYRDVMLENYSNLVSLGCSSPKPDVITLLEQEREPWTVMREGTRSWYTDLESK
Log2 (fold change) [1]: 2.898

B23: DOMAIN_25649 (protein)
chain: AQESVMFSDVSIDFSQEEWECLNDDQRDLYRDVMLENYSHLVSMGHSVSKPDVISFLEQGKEPWLVDRELTRDHWPVLESR
modifications: Ursus arctos
Log2 (fold change) [1]: 3.6884

B24: DOMAIN_25623 (protein, listed as Ursus maritimus)
chain: RPGAVSFADVAVYFSPEEWGCLRPAQRALYRDVMRETYGHLGALGFAGPKPALISWLERKKEVWSPEAEDPEAGARHPGSG
Log2 (fold change) [1]: 3.4886

B25: DOMAIN_25807 (protein)
chain: AQAPLSFEDVAVSFSREEWRLLVPAQKDLYRDVMLENYRNLVSVGYQASEPDSLFRLEHGGPLWVVEGAAPRPPCPGEYVA
modifications: Puma concolor
Log2 (fold change) [1]: 3.6511

B26: DOMAIN_25564 (protein, listed as Muntiacus reevesi)
chain: RKRGSLTLEDVAVDFTWEEWQLLAPAQKALYQEVMLENYGNLVFVGYQASKPAALSRLERGEPWPVEDEVHSQLCPEMRKD
Log2 (fold change) [1]: 3.4378

B27: DOMAIN_25334 (protein, listed as Phascolarctos cinereus)
chain: IQELVTFKDVAVDFTQEEWGLLNNPQKELYKEVMLENAQNMLSLGLPVPREDLFSYFEEREAPWLLEQEGLRSCCAEREIR
Log2 (fold change) [1]: 2.7501

B28: DOMAIN_25443 (protein, listed as Muntiacus reevesi)
chain: QAGSDLFRDVAIVFSQEEWEQLAPTQRDLYRDVMLETYSNLVSLGLAVSKPDVIAFLEQGREPWTVEGVATGGLCPVLKSR
Log2 (fold change) [1]: 3.2531

B29: DOMAIN_26010 (protein, listed as Geotrypetes seraphini)
chain: QMWVTFEDVAVSFSQEEWVYLDEGQKELYREVMKENYETVMSLAGEEFSRGKEKEGSIEQQSLKTEVHEMNKRVKLFKCSE
Log2 (fold change) [1]: 2.1911

B30: DOMAIN_25234 (protein, listed as Saimiri boliviensis)
chain: PQVSLTFEDVAVLFTRDEWRKLAPSQRNLYRDVMLENYRNLVSLGLPFTKPKVISLLQQGEDPWKVEKDSSGGCSPGCKSN
Log2 (fold change) [1]: 2.743

B31: DOMAIN_25628 (protein, listed as Rhinopithecus bieti)
chain: PLESVTFKDVAIDFTLEEWRLMDPTQRNLHKDVMLENYRNLVSLGLAVSKPDMISHLENGKGPWVTMRGISRIPYPDIEPK
Log2 (fold change) [1]: 2.8332

B32: DOMAIN_25865 (protein, listed as Vombatus ursinus)
chain: FQDSVTFQDVAVTFTPEEWGRLAAPQKELYREVMLENFGHLACLGLALSKPDVICQLERGEAPWMPRGDVPQRPSAAPSGD
Log2 (fold change) [1]: 3.1027

B33: DOMAIN_26194 (protein, listed as Geotrypetes seraphini)
chain: QVPVTFEDIAVYFSQEEWEDLEEQQRELYKDVMKENYETLSSLGTGPPAVTPDIISHIERGEEPYIRFESGPEEREIGKSS
Log2 (fold change) [1]: 2.8857

B34: DOMAIN_25146 (protein, listed as Macaca nemestrina)
chain: MVSFEDVAVLLSQEEWDCLIPAQRGLYRDVMLETYGNLVSLGLQASKPDVISRLEQGDKPWTPHILRTQRSWSWRHKRECY
Log2 (fold change) [1]: 3.629

B35: DOMAIN_888 (protein, listed as Pan paniscus)
chain: MDMAQEPVTFRDVAIYFSREEWACLEPSQRTLYRDVMLDNFSSVAALGFCSPRPDLVSRLEQWEEPWVEDRERPELQAVRR
Log2 (fold change) [2]: 2.8951

B36: DOMAIN_25400 (protein, listed as Lynx canadensis)
chain: FQELVTFRDVAIDFSRQEWEYLDSVQRDLYRDVMLENYRNLVSLGHSISKPDVVDLLEQGKEPWMILREETQRQYTDLDLH
Log2 (fold change) [1]: 2.2285

B37: DOMAIN_25534 (protein, listed as Ursus maritimus)
chain: LQGLLTFGDVAIEFSQEEWRCLSHTQRELYRDVMLENYGHLLFLGLTVSKPDLVSFLEQRKEPWDEKRNKTAGFDASRWE
Log2 (fold change) [1]: 2.2698

Where two headings read alike, the source gives them in different places.
